# In PMC9911399, “Two distinct binding modes provide the RNA-binding protein RbFox with extraordinary sequence specificity”:
# Numbering of substitutions follows the chain as printed; changes in the protein carry UniProt numbers. The list shows a part of the results.
# T1: RBFOX1 RRM RbFoxmut (Fox-RRM*) (Homo sapiens, UniProt Q9NWB1 109-208, R118D;E147R;N151S;E152T)
# T1 sequence: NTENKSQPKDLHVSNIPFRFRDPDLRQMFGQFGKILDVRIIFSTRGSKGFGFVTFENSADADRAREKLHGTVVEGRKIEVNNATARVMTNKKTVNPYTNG
# B1: GAUAGUG (DNA:RNA)
# RNA: GGGAGACCGGAAUUCAGAUUGUCCGAUAGUGUUAAAUCCCGUCGUAGCCACCA
# DNA 1: CAATCTGAATTCCGGTCTCCC
# DNA 2: TGGTGGCTACGACGGGATT
# B2: GAAAUAA (DNA:RNA)
# RNA: B1 RNA with U27A, G29U, U30A, G31A
# DNA 1: CAATCTGAATTCCGGTCTCCC
# DNA 2: TGGTGGCTACGACGGGATT
# B3: GGAGACC (DNA:RNA)
# RNA: B1 RNA with A26G, U27A, A28G, G29A, U30C, G31C
# DNA 1: CAATCTGAATTCCGGTCTCCC
# DNA 2: TGGTGGCTACGACGGGATT
# B4: UACCGAG (DNA:RNA)
# RNA: B1 RNA with G25U, U27C, A28C, U30A
# DNA 1: CAATCTGAATTCCGGTCTCCC
# DNA 2: TGGTGGCTACGACGGGATT
# B5: CUAUGGC (DNA:RNA)
# RNA: B1 RNA with G25C, A26U, U27A, A28U, U30G, G31C
# DNA 1: CAATCTGAATTCCGGTCTCCC
# DNA 2: TGGTGGCTACGACGGGATT
# B6: GGUUUGA (DNA:RNA)
# RNA: B1 RNA with A26G, A28U, G29U, U30G, G31A
# DNA 1: CAATCTGAATTCCGGTCTCCC
# DNA 2: TGGTGGCTACGACGGGATT
# B7: GGGCCGU (DNA:RNA)
# RNA: B1 RNA with A26G, U27G, A28C, G29C, U30G, G31U
# DNA 1: CAATCTGAATTCCGGTCTCCC
# DNA 2: TGGTGGCTACGACGGGATT
# B8: CCAGAUU (DNA:RNA)
# RNA: B1 RNA with G25C, A26C, U27A, A28G, G29A, G31U
# DNA 1: CAATCTGAATTCCGGTCTCCC
# DNA 2: TGGTGGCTACGACGGGATT
# B9: GGCAUUC (DNA:RNA)
# RNA: B1 RNA with A26G, U27C, G29U, G31C
# DNA 1: CAATCTGAATTCCGGTCTCCC
# DNA 2: TGGTGGCTACGACGGGATT
# B10: UGCCUCG (DNA:RNA)
# RNA: B1 RNA with G25U, A26G, U27C, A28C, G29U, U30C
# DNA 1: CAATCTGAATTCCGGTCTCCC
# DNA 2: TGGTGGCTACGACGGGATT
# B11: CCGUGUC (DNA:RNA)
# RNA: B1 RNA with G25C, A26C, U27G, A28U, G31C
# DNA 1: CAATCTGAATTCCGGTCTCCC
# DNA 2: TGGTGGCTACGACGGGATT
# B12: AUAGUAA (DNA:RNA)
# RNA: GGGAGACCGGAAUUCAGAUUGUCCAUAGUAAUUAAAUCCCGUCGUAGCCACCA
# DNA 1: CAATCTGAATTCCGGTCTCCC
# DNA 2: TGGTGGCTACGACGGGATT
# B13: UACGCGG (DNA:RNA)
# RNA: B1 RNA with G25U, U27C, A28G, G29C, U30G
# DNA 1: CAATCTGAATTCCGGTCTCCC
# DNA 2: TGGTGGCTACGACGGGATT
# B14: GCCAGAA (DNA:RNA)
# RNA: B1 RNA with A26C, U27C, U30A, G31A
# DNA 1: CAATCTGAATTCCGGTCTCCC
# DNA 2: TGGTGGCTACGACGGGATT
# B15: GCACGCA (DNA:RNA)
# RNA: B12 RNA with A25G, U26C, G28C, U29G, A30C
# DNA 1: CAATCTGAATTCCGGTCTCCC
# DNA 2: TGGTGGCTACGACGGGATT
# B16: AUUUAUU (DNA:RNA)
# RNA: B12 RNA with A27U, G28U, U29A, A30U, A31U
# DNA 1: CAATCTGAATTCCGGTCTCCC
# DNA 2: TGGTGGCTACGACGGGATT
# B17: CUCACCG (DNA:RNA)
# RNA: B1 RNA with G25C, A26U, U27C, G29C, U30C
# DNA 1: CAATCTGAATTCCGGTCTCCC
# DNA 2: TGGTGGCTACGACGGGATT
# B18: GCCAAAG (DNA:RNA)
# RNA: B1 RNA with A26C, U27C, G29A, U30A
# DNA 1: CAATCTGAATTCCGGTCTCCC
# DNA 2: TGGTGGCTACGACGGGATT
# B19: CGGCCGU (DNA:RNA)
# RNA: GGGAGACCGGAAUUCAGAUUGUCCCGGCCGUUUAAAUCCCGUCGUAGCCACCA
# DNA 1: CAATCTGAATTCCGGTCTCCC
# DNA 2: TGGTGGCTACGACGGGATT
# B20: GUUGGAG (DNA:RNA)
# RNA: B1 RNA with A26U, A28G, U30A
# DNA 1: CAATCTGAATTCCGGTCTCCC
# DNA 2: TGGTGGCTACGACGGGATT
# B21: CGGCAGG (DNA:RNA)
# RNA: B19 RNA with C29A, U31G
# DNA 1: CAATCTGAATTCCGGTCTCCC
# DNA 2: TGGTGGCTACGACGGGATT
# B22: ACAUGGG (DNA:RNA)
# RNA: B12 RNA with U26C, G28U, U29G, A30G, A31G
# DNA 1: CAATCTGAATTCCGGTCTCCC
# DNA 2: TGGTGGCTACGACGGGATT
# B23: UGUGUAA (DNA:RNA)
# RNA: B12 RNA with A25U, U26G, A27U
# DNA 1: CAATCTGAATTCCGGTCTCCC
# DNA 2: TGGTGGCTACGACGGGATT
# B24: GCCGCCC (DNA:RNA)
# RNA: B12 RNA with A25G, U26C, A27C, U29C, A30C, A31C
# DNA 1: CAATCTGAATTCCGGTCTCCC
# DNA 2: TGGTGGCTACGACGGGATT
# B25: ACGAAAC (DNA:RNA)
# RNA: B12 RNA with U26C, A27G, G28A, U29A, A31C
# DNA 1: CAATCTGAATTCCGGTCTCCC
# DNA 2: TGGTGGCTACGACGGGATT
# B26: AACAAUG (DNA:RNA)
# RNA: B1 RNA with G25A, U27C, G29A
# DNA 1: CAATCTGAATTCCGGTCTCCC
# DNA 2: TGGTGGCTACGACGGGATT
# B27: ACUUCCU (DNA:RNA)
# RNA: B19 RNA with C25A, G26C, G27U, C28U, G30C
# DNA 1: CAATCTGAATTCCGGTCTCCC
# DNA 2: TGGTGGCTACGACGGGATT
# B28: UGCGAAC (DNA:RNA)
# RNA: B12 RNA with A25U, U26G, A27C, U29A, A31C
# DNA 1: CAATCTGAATTCCGGTCTCCC
# DNA 2: TGGTGGCTACGACGGGATT
# B29: ACUGAUU (DNA:RNA)
# RNA: B12 RNA with U26C, A27U, U29A, A30U, A31U
# DNA 1: CAATCTGAATTCCGGTCTCCC
# DNA 2: TGGTGGCTACGACGGGATT
# B30: AGGGAAG (DNA:RNA)
# RNA: B12 RNA with U26G, A27G, U29A, A31G
# DNA 1: CAATCTGAATTCCGGTCTCCC
# DNA 2: TGGTGGCTACGACGGGATT
# B31: UCCGGAC (DNA:RNA)
# RNA: B12 RNA with A25U, U26C, A27C, U29G, A31C
# DNA 1: CAATCTGAATTCCGGTCTCCC
# DNA 2: TGGTGGCTACGACGGGATT
# Biological target: T1, RBFOX1 RRM RbFoxmut (Fox-RRM*)
# Assay: EMSA; HiTS-Eq, 1 nM pool, 10 min; buffer printed only for the single-RNA assays: 10 mM Tris pH 7.5, 150 mM NaCl, 3.4 mM EDTA, 0.001% NP-40, 30 C
# Conditions: tags: His6 N-terminal (pET28a); label: 5' 32P
# Summary of the method: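 Purified wild-type or mutant RbFox RRM at increasing concentrations was equilibrated with 1 nM of 5′-radiolabelled RNA carrying 7 randomized nucleotides for 10 min in 50 µL. Unbound RNA was separated by 8% native PAGE and sequenced. Relative association constants came from read-count changes of each RNA species compared with the control reaction, normalised to the cognate motif.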
row,Binder,binding signal
1,B1,0.126 KA relative to UGCAUGU
2,B2,0.0767 KA relative to UGCAUGU
3,B3,0.0796 KA relative to UGCAUGU
4,B4,0.0833 KA relative to UGCAUGU
5,B5,0.103 KA relative to UGCAUGU
6,B6,0.293 KA relative to UGCAUGU
7,B7,0.134 KA relative to UGCAUGU
8,B8,0.0808 KA relative to UGCAUGU
9,B9,0.119 KA relative to UGCAUGU
10,B10,0.294 KA relative to UGCAUGU
11,B11,0.179 KA relative to UGCAUGU
12,B12,0.118 KA relative to UGCAUGU
13,B13,0.0775 KA relative to UGCAUGU
14,B14,0.0878 KA relative to UGCAUGU
15,B15,0.214 KA relative to UGCAUGU
16,B16,0.152 KA relative to UGCAUGU

row,Binder,binding signal
1,B17,0.0937 KA relative to UGCAUGU
2,B18,0.092 KA relative to UGCAUGU
3,B19,0.0918 KA relative to UGCAUGU
4,B20,0.118 KA relative to UGCAUGU
5,B21,0.0879 KA relative to UGCAUGU
6,B22,0.0899 KA relative to UGCAUGU
7,B23,0.111 KA relative to UGCAUGU
8,B24,0.065 KA relative to UGCAUGU
9,B25,0.0863 KA relative to UGCAUGU
10,B26,0.0359 KA relative to UGCAUGU
11,B27,0.0598 KA relative to UGCAUGU
12,B28,0.0784 KA relative to UGCAUGU
13,B29,0.0776 KA relative to UGCAUGU
14,B30,0.144 KA relative to UGCAUGU
15,B31,0.0472 KA relative to UGCAUGU
